Measurements from the supplement of paper PMC11417369.
The list shows a part of the results.

System: PF3D7_0420300 AP2 domain 1 (GST-tagged)
Test: gcPBM binding intensity (ln(normalized median fluorescence intensity)); higher = stronger DNA binding
In short: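 Binding intensity is defined as the maximum Masliner-normalised natural-log median intensity across replicate spots for either probe orientation. It was measured on an Agilent 4 × 180k array of primer-extended double-stranded 36-bp intergenic genomic probes and negative controls, to which GST-tagged P. falciparum DNA-binding domains made in E. coli were applied for 1 h in 1× PBS with 1% milk, 0.2 mg/ml BSA, 0.5% salmon testes DNA and 0.03% Triton X-100. Detection was by Alexa488 anti-GST antibody and scanning at 488 nm.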

Sequence | gcPBM binding intensity (ln)
AAAAAAGAAATAATCAAATAAATAAAAAAGATGAAT [XGTACX_negctrl_site607] | 9.7
GTGTGAAGATATAAATGCATTTTTTTATACATTTTC [CACACA_negctrl_site117] | 9.23
TGTAAGTATTCTTGAGGTACACATATAAATATAGTA [XGTACX_site3207] | 9.09
AATATTATATAATAAAGTACATATATATTCATATTT [XGTACX_site7204] | 9.19
TGTGTGGATATATGTATGCACTACCCTTTGGGTCAT [GTGCAC_site9506] | 9.16
ATATATTGAACCTATGCATGTAAAATATATGTAATA [TGCATGCA_site644] | 9.33
AAATATTAAATGGAAAACAAATATATATATCTTAAT [XGTACX_negctrl_site383] | 9.34
TTATTTATTTTTTCATGTACTTAAATATATTAATGT [XGTACX_site5804] | 9.21
ATCTATATTTTTATAACACACAATGATGTACATTAC [CACACA_site6633] | 9.48
TGAAAATATTTTATATGTACATATATTATCAATACA [XGTACX_site92] | 9.09
TAGAATAATCTATAAACACACAAACCCAACAAAAGA [CACACA_site6132] | 9.86
ATTTACCCTTGCCATGCACACTTTTTTATAGAAAAT [CACACA_site5857] | 9.53
TATTAATACAGACACACACACACACTAATTAAAATA [CACACA_site7967] | 10.1
AATATATAATTAATTGCACACCTTGTCACGCCAAAA [CACACA_site1174] | 9.23
ATATATAAATTTAATACACACCCAAAAAAAAAAAAA [CACACA_site7719] | 9.53
GAATGAATACGTTTTACACACTTGAATATAATTTCA [CACACA_site989] | 9.4
TAAATATATAAACACACACACATTAATACAGATATT [CACACA_site5851] | 10.2
AAAATTATAAAATGGGCACACATGAAGATTGTAGTA [CACACA_site2226] | 9.58
TAAAGAGTTACCATTTGTACTTACGCACACATAAAA [XGTACX_site3145] | 9.28
TATATTTGAAATATATGTACTTATAATACAGTTTAA [XGTACX_site8039] | 8.95
CACAGATAAATTAACACACACACACGGATATTTATA [CACACA_site7788] | 10.2
ATGTATACAAATATATGTACGTATGTTCTCTTCTTT [XGTACX_site7865] | 9.4
TTATTAGGTATATATGCACACAATACCCAAAACAAC [CACACA_site4221] | 9.52

Sequence | gcPBM binding intensity (ln)
GGTAATAAACAATGAAGTACGTAAAGGTAAAATATT [XGTACX_site2647] | 9.78
TGTAAATATAAATGTAATAAATATGTAAAAATAAAT [XGTACX_negctrl_site171] | 9.49
ATTTAATTTTCATGATGTACTATAGTTTAATGCACA [XGTACX_site1624] | 9.2
TAATAATCAAACTATACACACATAAATAGATATATA [CACACA_site6220] | 9.71
TATTTTCAAAAATATACACACACATAAATATATGTA [CACACA_site8160] | 9.56
TTATATGTATTTCTTTGTACACATTTTTATATATAT [XGTACX_site1462] | 9.65
ATTATGCACCAACACACACACACACCCCTAAAAAAT [CACACA_site2568] | 10.3
CACTTCAAAAAAATATGTACACATATATATATATAT [XGTACX_site3075] | 9.2
TAAATTTTATAAATCTGTACATATGAGCAAGAACAT [XGTACX_site7400] | 9.39
TATCATTTTTTTAAAACACACATAATAATATAAATA [CACACA_site2845] | 9.15
TACCAAAAGAAACACACACACAAAATATATAAATAT [CACACA_site1869] | 10.2
TCCCATATATATATATATATATATATATATAATAAT [TGCATGCA_negctrl_site41] | 9.03
TTTGGCTAGTCAAGTTGTACAAAAAAAAAAAAAAAA [XGTACX_site8382] | 8.58
ATACTTTTAATATGCACATGCAAATATGAAATATCG [TGCATGCA_site603] | 9.03
AAATAAAAAAAATAAAAGCAATCATAATAAAAATCT [CACACA_negctrl_site161] | 9.52
AATATATTTAATGAGTGTACATTATTTATTATTATT [XGTACX_site6889] | 9.29
AATTTATATTAAAATTGTACATTTCTTCTATAATAC [XGTACX_site8639] | 9.17
TGTATGTATTTGTGTAGTACGCATAAGTAATAAAAC [XGTACX_site6704] | 9.42
AAAAAAAATTAAAATAAAATATAAATATAAAATATA [GTGCAC_negctrl_site714] | 9.16
TATATATTTTTATGCACACACAAAGAAAATTTTCCT [CACACA_site2863] | 9.57
AAAGTATAACGGATACCATTTATGTGATTATTTTGT [XGTACX_negctrl_site188] | 9.27
AAATATATATAAGCGTGTACACATTCTGAGTGTTGT [XGTACX_site1088] | 9.53
ATAATAAAAATAAAATGTACATACATAAATATATAT [XGTACX_site6228] | 9.53

Sequence | gcPBM binding intensity (ln)
TATCGTTTTATTCGGTTGCACCAAAAAAATAAAATA [GTGCAC_site9408] | 8.85
AGCTATAATAAATATACACACATATATAAATATGTA [CACACA_site6583] | 9.37
ATATATATATAATAAGTGCAAAAATAATGACCTATA | 9.45
TTTTGTCGGAAATCGGATAAGAAGAAAAAAAATAAT [GTGCAC_negctrl_site594] | 9.2
AAAAAAAAAAAATACGTGCACTATGATATATTATAT | 9.32
TTCACTCCATATTATACACACACACTAATGAAAAAA [CACACA_site8991] | 9.79
AAAAAAAAAAAAAGTACACACATACATATAAATATA [CACACA_site8533] | 9.72
ATAATATTTATAAATTGTACTAATGTTCAATAATTA [XGTACX_site7284] | 9.01
GAAATAATTTTTATTTGTACACACATACATATATAT [XGTACX_site1862] | 9.59
AAATTTTATAAAGGAACACACATTTTTTTTTTTTCT [CACACA_site2368] | 9.27
TTATTCATTTCGAAAAGTACAAATTCTGTTTATTAT [XGTACX_site6892] | 9.19
CCACTAATTATGTGCACACAAATTAAAGGTCTACAA [CACACA_site4259] | 9.46
TACATGATAAGATGTAGTACATAAAAGAATAAATTA [XGTACX_site787] | 9.34
TTTTCAAAAATATATACACACATGCATATTACGGTG [CACACA_site775] | 9.36
TATTCAATACTTAATGCACACAATAAAAAAAATATG [CACACA_site2467] | 9.36
ACGATAACATTTTTACGTACATATATTTTCACGGAG [XGTACX_site8764] | 9.28
AAATGAAAAATAAGGAAAAAAAAAAAAAAAAAAAAA [CACACA_negctrl_site1715] | 8.25
TAAAATATTTCAAAGGTGCAATGATAATTTAAGACG [GTGCAC_site9609] | 9.3
ATATTGACAGGAAAAATTTTCTTTGAATCTTTAAAA [CACACA_negctrl_site1191] | 8.73
ACAAAAAAAATAAGCACACATATATATATATATATA [CACACA_site816] | 9.36
TATGTTATATTGGACACACACAATAAACATTATGTA [CACACA_site1657] | 9.44
ATATATATATATAAGCGTACGCGTAGTTAAATTAAT [XGTACX_site7693] | 9.46
AAAAAAATAACAAAAGTGCATTTTTATGAGTTATCT | 9.2

Sequence | gcPBM binding intensity (ln)
ATATATAATTAATAAAGTACATTAATTATTTCTTTT [XGTACX_site3034] | 9.03
TATAATTAAAATTTGTGTACGTATGACAAAACATTT [XGTACX_site7072] | 9.2
AGATACAAGCACTATAGTACACATACTAAAAATATA [XGTACX_site5849] | 9.35
TTTCCTTACCCTTTCCTGGTGTAGAAATTATACTCT [TGCATGCA_negctrl_site116] | 9.22
AAAAAAAAAAAACATACACACATACATACAGATATA [CACACA_site4681] | 9.95
TTTCACTACACAAATACACACAAAAATATATGTGCA [CACACA_site2632] | 9.49
TTCTATTTTATATGTGCACACATATACACCCACAAA [CACACA_site1130] | 9.45
TTCTTTTTGAAACACACACACACAAGAAAATATATA [CACACA_site3110] | 10.1
AAATTTTTTGTTCAATGTACTTTTTTATTATATTTT [XGTACX_site5298] | 9.51
GATATATAATATAATACACACATTTTATGAATGTAA [CACACA_site24] | 9.48
ATTTTTTAAATTTAAACACACATTTTGTATATGTTT [CACACA_site1654] | 9.48
TCTACTATTATATATTGTACAAATGATACTTATATT [XGTACX_site1819] | 9.3
TTAAAATTTTTCAAAAGTACATAAATAATATATATT [XGTACX_site4694] | 8.91
AATATATTATATATATGTACATAATGTGTAATACCT [XGTACX_site2845] | 9.37
TTTTTTTTTGTTAAAGTGCATATATTAAATTTTCCT [GTGCAC_site9677] | 9.14
GGAAAAAAATATAAAAGTACTTTTTATTTATTTTAT [XGTACX_site7418] | 9.06
TTTATTTGTTCATGCGTGCACTTGATAACAATGTAC [GTGCAC_site9561] | 9.08
AAAAAAAATTCATATTGTACTTTTAAATTAAAGAAA [XGTACX_site4521] | 8.8
AGTGAATATCTAAAATGTACATAAATAAATAAATAA [XGTACX_site8293] | 9.19
CGTTATATCAAAGGAGTGCATTATGAATACGTTTTA [GTGCAC_site9837] | 9.14
